Paper PMC8578381
No constants are given. Whether binding was seen depends on the method and setting. Binding seen in cells or lysates may run through a third protein. Some binding calls cover weakened binding; strength is not graded here. Where a sequence is shown, tags or fusion partners need not be part of it.

Sequences of proteins named here, by UniProt entry; tags and fusion partners are left off.
UniProt Q39026: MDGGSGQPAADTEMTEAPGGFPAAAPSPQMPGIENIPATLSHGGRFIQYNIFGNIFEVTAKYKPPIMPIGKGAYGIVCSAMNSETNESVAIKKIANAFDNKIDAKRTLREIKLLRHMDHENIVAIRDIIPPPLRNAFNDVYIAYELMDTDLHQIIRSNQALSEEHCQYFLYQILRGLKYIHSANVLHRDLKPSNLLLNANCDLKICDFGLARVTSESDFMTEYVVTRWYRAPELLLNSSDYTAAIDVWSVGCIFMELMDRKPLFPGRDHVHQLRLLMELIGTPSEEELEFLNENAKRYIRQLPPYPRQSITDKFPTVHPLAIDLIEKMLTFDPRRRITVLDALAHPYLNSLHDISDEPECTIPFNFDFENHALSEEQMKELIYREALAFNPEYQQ

T1: MPK3-Cluc (MPK3 fused to the C-terminal fragment of firefly luciferase) (Arabidopsis) (UniProt Q39023)
T1 sequence: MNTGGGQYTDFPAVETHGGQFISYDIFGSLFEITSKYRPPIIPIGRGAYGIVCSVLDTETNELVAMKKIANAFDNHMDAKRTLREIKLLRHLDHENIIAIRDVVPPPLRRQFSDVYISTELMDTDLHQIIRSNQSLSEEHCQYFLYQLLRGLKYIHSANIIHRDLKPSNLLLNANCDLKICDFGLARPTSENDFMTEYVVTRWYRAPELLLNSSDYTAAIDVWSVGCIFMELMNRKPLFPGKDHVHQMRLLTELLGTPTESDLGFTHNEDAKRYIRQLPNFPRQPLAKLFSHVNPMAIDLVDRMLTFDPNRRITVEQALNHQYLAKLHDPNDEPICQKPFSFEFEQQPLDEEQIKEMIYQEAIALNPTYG

T2: Flag-MPK3 (Arabidopsis) (UniProt Q39023)
T2 sequence: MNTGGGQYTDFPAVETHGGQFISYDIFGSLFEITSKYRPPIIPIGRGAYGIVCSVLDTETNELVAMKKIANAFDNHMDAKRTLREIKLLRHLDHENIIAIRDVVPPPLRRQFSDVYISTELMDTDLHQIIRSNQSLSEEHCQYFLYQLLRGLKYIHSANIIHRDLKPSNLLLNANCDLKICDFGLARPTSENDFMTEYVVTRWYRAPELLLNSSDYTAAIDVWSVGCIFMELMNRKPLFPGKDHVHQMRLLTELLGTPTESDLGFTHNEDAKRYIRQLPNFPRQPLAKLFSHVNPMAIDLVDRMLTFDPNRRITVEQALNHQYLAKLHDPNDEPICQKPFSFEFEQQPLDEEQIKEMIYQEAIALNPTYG


Key:
[1] = molecular target: MPK6-Cluc (MPK6 fused to the C-terminal fragment of firefly luciferase) (Arabidopsis) (UniProt Q39026); test: split reporter; split-luciferase complementation imaging; constructs transiently coexpressed in N. benthamiana leaves by Agrobacterium GV3101, 48 h; 1 mM luciferin sprayed, cooled CCD imaging
[2] = molecular target: T1, MPK3-Cluc (MPK3 fused to the C-terminal fragment of firefly luciferase) (Arabidopsis); test: as above
Flag-MPK6 (Arabidopsis) = Flag-MPK6 (Arabidopsis) (UniProt Q39026); test: co-IP; total protein from N. benthamiana leaves coexpressing Flag-MPK3 or Flag-MPK6 and GFP-VLN3, 48 h; anti-Flag agarose beads 2 h; washed five times (50 mM HEPES pH 7.5, 150 mM KCl, 1 mM EDTA, 0.5% Triton X-100, 1 mM DTT); anti-GFP and anti-Flag immunoblot; with or without flg22 treatment
Flag-MPK3 (Arabidopsis) = molecular target: T2, Flag-MPK3 (Arabidopsis); test: as above

| binding [1] | binding [2] | binding (Flag-MPK6 (Arabidopsis)) | binding (Flag-MPK3 (Arabidopsis)) | Binder |
| --- | --- | --- | --- | --- |
| binds | binds |  |  | VLN3-Nluc (Arabidopsis villin3 fused to the N-terminal fragment of firefly luciferase) (protein, UniProt O81645 1-965) MSGSTKVLDPAFQGVGQKPGTEIWRIENFEPVPVPKSEHGKFYMGDTYIVLQTTQNKGGAYLFDIHFWIGKDTSQDEAGTAAVKTVELDAALGGRAVQYREIQGHESDKFLSYFKPCIIPLEGGVASGFKKPEEEEFETRLYTCKGKRAVHLKQVPFARSSLNHDDVFILDTKEKIYQFNGANSNIQERAKALVVIQYLKDKFHEGTSDVAIVDDGKLDTESDSGEFWVLFGGFAPIARKVASEDEIIPETTPPKLYSIADGQVESIDGDLSKSMLENNKCYLLDCGSEIFIWVGRVTQVEERKTAIQAAEDFVASENRPKATRITRVIQGYEPHSFKSNFDSWPSGSATPANEEGRGKVAALLKQQGVGLKGLSKSTPVNEDIPPLLEGGGKLEVWYIDANSKTVLSKDHVGKLYSGDCYLVLYTYHSGERKEDYFLCCWFGKNSNQEDQETAVRLASTMTNSLKGRPVQARIFEGKEPPQFVALFQHMVVLKGGLSSGYKNSMTEKGSSGETYTPESIALIQVSGTGVHNNKALQVEAVATSLNSYDCFLLQSGTSMFLWVGNHSTHEQQELAAKVAEFLKPGTTIKHAKEGTESSSFWFALGGKQNFTSKKVSSETVRDPHLFSFSFNRGKFQVEEIHNFDQDDLLTEEMHLLDTHAEVFVWVGQCVDPKEKQTAFEIGQRYINLAGSLEGLSPKVPLYKITEGNEPCFFTTYFSWDSTKATVQGNSYQKKAALLLGTHHVVEDQSSSGNQGPRQRAAALAALTSAFNSSSGRTSSPSRDRSNGSQGGPRQRAEALAALTSAFNSSPSSKSPPRRSGLTSQASQRAAAVAALSQVLTAEKKKSPDTSPSAEAKDEKAFSEVEATEEATEAKEEEEVSPAAEASAEEAKPKQDDSEVETTGVTFTYERLQAKSEKPVTGIDFKRREAYLSEVEFKTVFGMEKESFYKLPGWKQDLLKKKFNLF |
|  |  | binds | binds | GFP-VLN3 (protein, UniProt O81645 1-965) MSGSTKVLDPAFQGVGQKPGTEIWRIENFEPVPVPKSEHGKFYMGDTYIVLQTTQNKGGAYLFDIHFWIGKDTSQDEAGTAAVKTVELDAALGGRAVQYREIQGHESDKFLSYFKPCIIPLEGGVASGFKKPEEEEFETRLYTCKGKRAVHLKQVPFARSSLNHDDVFILDTKEKIYQFNGANSNIQERAKALVVIQYLKDKFHEGTSDVAIVDDGKLDTESDSGEFWVLFGGFAPIARKVASEDEIIPETTPPKLYSIADGQVESIDGDLSKSMLENNKCYLLDCGSEIFIWVGRVTQVEERKTAIQAAEDFVASENRPKATRITRVIQGYEPHSFKSNFDSWPSGSATPANEEGRGKVAALLKQQGVGLKGLSKSTPVNEDIPPLLEGGGKLEVWYIDANSKTVLSKDHVGKLYSGDCYLVLYTYHSGERKEDYFLCCWFGKNSNQEDQETAVRLASTMTNSLKGRPVQARIFEGKEPPQFVALFQHMVVLKGGLSSGYKNSMTEKGSSGETYTPESIALIQVSGTGVHNNKALQVEAVATSLNSYDCFLLQSGTSMFLWVGNHSTHEQQELAAKVAEFLKPGTTIKHAKEGTESSSFWFALGGKQNFTSKKVSSETVRDPHLFSFSFNRGKFQVEEIHNFDQDDLLTEEMHLLDTHAEVFVWVGQCVDPKEKQTAFEIGQRYINLAGSLEGLSPKVPLYKITEGNEPCFFTTYFSWDSTKATVQGNSYQKKAALLLGTHHVVEDQSSSGNQGPRQRAAALAALTSAFNSSSGRTSSPSRDRSNGSQGGPRQRAEALAALTSAFNSSPSSKSPPRRSGLTSQASQRAAAVAALSQVLTAEKKKSPDTSPSAEAKDEKAFSEVEATEEATEAKEEEEVSPAAEASAEEAKPKQDDSEVETTGVTFTYERLQAKSEKPVTGIDFKRREAYLSEVEFKTVFGMEKESFYKLPGWKQDLLKKKFNLF |
| no binding | no binding |  |  | MDP25 (actin regulator, negative control of the split-LUC assay) (protein, UniProt Q96262 1-225) MGYWNSKVVPKFKKLFEKNSAKKAAAAEATKTFDESKETINKEIEEKKTELQPKVVETYEATSAEVKALVRDPKVAGLKKNSAAVQKYLEELVKIEFPGSKAVSEASSSFGAGYVAGPVTFIFEKVSVFLPEEVKTKEIPVEEVKAEEPAKTEEPAKTEGTSGEKEEIVEETKKGETPETAVVEEKKPEVEEKKEEATPAPAVVETPVKEPETTTTAPVAEPPKP |
